This is an account of results in patent publication US20140162952A1 (ONCOTHERAPY SCIENCE, published 2014).

One assay has as its target T1, Flag-full-length ERAP1 (human, UniProt Q5TH69).
T1 construct: Expressed by transfection in COS-7 or HEK293T cells and used as cell lysate; also called Flag-ERAP1; FLAG-ERAP1; not shown: Flag tag
As to the kind of experiment: co-immunoprecipitation from transfected HEK293T cells, IP anti-PP1α, blot anti-FLAG.

For assay [1], the target named is T2, FLAG-ERAP1-ΔPP1α (ERAP1 construct in which 1228-1232 aa (KAVSF) were deleted) (human, UniProt Q5TH69).
T2 construct: expressed in HEK293T cells; also called ERAP1 construct (ΔPP1α); not shown: FLAG tag
The description is as above.

B1: inherent PP1α (protein phosphatase 1α) (enzyme)
chain: not shown
notes: Endogenous in MCF-7 and HEK293T cells; also called PP1α polypeptide
For the molecule B1, the values for the binding result (in the assay with Flag-full-length ERAP1; in assay [1]) were “binds” and “no binding (tested: 2.0 µg DNA)”, respectively.
